In PubChem BioAssay (NCI):
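Growth conditions: 96-well plates. Treatment: test compound, 48 hours, 5 concentrations. Analysis: linear interpolation between bracketing concentrations; unreached endpoints set to highest concentration. GI50 is the concentration that inhibits growth by half. TGI is the concentration that stops growth completely.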

Tested on: NCI-H322M lung
Test: inhibition of tumour cell growth, NCI panel, 48 h

## C=C1CC[C@@H]2[C@]3(C)COC(c4cn[nH]c4-c4ccc(C)cc4)O[C@@H]3CC[C@@]2(C)[C@@H]1C/C=C1/C(=O)OCC1O (stereo not given in full)
  GI50: 32.5 µM
  TGI: > 100 µM

## CC1=C2C(=C[C@@](C)(COCOCCCl)[C@@H]2O)C(=O)[C@](C)(O)C12CC2
  GI50: 0.789 µM
  TGI: 4.33 µM

## Cc1ccccc1[C@H]1C(C(=O)c2ccc(Cl)cc2)C2(N[C@@H]1c1ccccc1)C(=O)Nc1ccccc12 (stereo not given in full)
  GI50: 6.23 µM
  TGI: 17.8 µM

## O=c1cc(-c2ccccc2)oc2cc(OCCCC[P+](c3ccccc3)(c3ccccc3)c3ccccc3)cc(O)c12
  GI50: 1.37 µM
  TGI: 3.66 µM

## Cc1nc(Nc2nc(C)c3ccc(OCCN4CCOCC4)cc3n2)[nH]c(=O)c1C
  GI50: 3.17 µM
  TGI: 17 µM
